For one experiment, the target named is T1, P2Y14R (Homo sapiens, UniProt Q15391).
T1 sequence (Q15391 1-338): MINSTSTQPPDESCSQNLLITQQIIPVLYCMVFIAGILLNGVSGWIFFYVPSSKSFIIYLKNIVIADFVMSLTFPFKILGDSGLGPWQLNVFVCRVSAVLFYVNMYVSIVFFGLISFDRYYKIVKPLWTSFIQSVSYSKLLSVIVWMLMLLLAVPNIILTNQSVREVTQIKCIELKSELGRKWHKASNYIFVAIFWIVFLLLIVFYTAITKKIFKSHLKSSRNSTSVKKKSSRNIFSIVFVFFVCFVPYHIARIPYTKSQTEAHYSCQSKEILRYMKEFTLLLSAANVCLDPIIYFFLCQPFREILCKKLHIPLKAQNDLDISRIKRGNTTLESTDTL
Description: cAMP production assay for P2Y14R antagonistic activity in P2Y14-HEK293 cells. The settings on record: read-out: In vitro P2Y14R affinity (IC50); Supplementary Table 2, compounds 5a-5i. In general terms: Cyclic AMP is a second messenger, typically raised through Gs and lowered through Gi signalling.

A further experiment relates to HCT-116 cells. Kind of experiment: TSZ-induced necroptosis in HCT-116 cells (PI/Hoechst staining). Type of experiment: cell-based, human. Particulars: for siP2Y14R-derived protection against TSZ-induced necroptosis: P2Y14R silencing HCT-116 cells, pre-treatment. The procedure: Necroptosis was induced by pretreatment with TNF‐α (20 ng·mL^−1) plus z‐VAD‐fmk (20 μM) and Smac mimetic (BV6, 2 μM) for 8 h, then stained cells with hematoxylin/eosin. For PI/Hoechst staining, cells were stained with PI and Hoechst for 20 min, then photographed with a fluorescence microscope and at least 300 cells were counted. The ratio of PI positive cells (%) = (PI positive cells) / (Hoechst positive cells) × 100%. For cell viability assay, CCK8 was added to the well and incubated for 1 − 2 h and then OD450 was measured using a multi-mode microplate reader (Cytation5, BioTek).

Experiment [1] relates to Ripk1 mRNA. Kind of experiment: RT-PCR of Ripk1 mRNA in HT-29 cells. The settings on record: siP2Y14R HT-29 cells + TSZ. Type of experiment: cell-based, human. The text has this: (§1) Total RNA was extracted from cells or colonic tissues using Trizol (Thermo) under the manufacturer’s instructions. First strand cDNA was synthesized using the PrimeScript RT Reagent Kit (480, Abm). SYBR Green Master Mix reagents (Q331-02, Vazyme) and primer mixtures (Table S1) were used for the real-time PCR. […] The procedure was as described in the kit provided by the manufacturer. Briefly, isolated IECs were fixed by 1% formaldehyde, and fragmented by sonication. CREB was then used for immunoprecipitation. After washing and reverse-crosslinking, the precipitated DNA was amplified by primers and quantified by the qPCR. Primer sequences can be found in Supplementary Table 1.

For experiment [2], the system named is Ripk1 mRNA. Description: RT-PCR of Ripk1 mRNA in HCT-116 cells. Type of experiment: cell-based, human. Particulars: siP2Y14R HCT-116 cells + TSZ.
Description: as §1

The source of these data is article PMC10920779, “Targeting P2Y14R protects against necroptosis of intestinal epithelial cells through PKA/CREB/RIPK1 axis in ulcerative colitis” (Nature Communications, 2024).

What is called IC50 is the midpoint of a concentration-inhibition curve. On to `COc1ccc(NCc2nc3ccccc3o2)cc1` [5g], for which the IC50 at P2Y14R came out at 7.78 nM.

For the compound `Brc1cccc(NCc2nc3ccccc3o2)c1` [5b], the IC50 on P2Y14R came to 0.33 nM.

`Brc1ccc(NCc2nc3ccccc3o2)cc1` [5i]: on P2Y14R, the IC50 came to 13.3 nM.

With `Clc1ccc(NCc2nc3ccccc3o2)cc1` [5f], on P2Y14R, the concentration for half-maximal inhibition (IC50) stood at 1.26 nM. Still for that read-out and setting: the same measure for `COc1cccc(NCc2nc3ccccc3o2)c1` [5d]: 2.46 nM. On to `Nc1ncnc2c1ncn2C1CCCO1` (stereo not shown) [SQ22536], for which, in the experiment with HCT-116 cells, the “siP2Y14R-derived protection against TSZ-induced necroptosis” value is listed as “disrupted the protective effect”. Moreover, the “Ripk1 mRNA level” value in the experiment on Ripk1 mRNA [1] and in the experiment on Ripk1 mRNA [2] was “greatly up-regulated the level of Ripk1” throughout. In the case of `Brc1ccccc1NCc1nc2ccccc2o1` [5e], the IC50 at P2Y14R stood at 5.12 nM.

As to `CC(C)S(=O)(=O)c1ccc2nccc(Nc3ccc4scnc4c3)c2c1` [GSK’872], in the experiment with HCT-116 cells (HCT-116 cells, UDPG+TSZ), the “UDP-glucose derived damage on TSZ-stimulated necroptosis” value was “remarkably attenuated the UDP-glucose derived damage on TSZ-stimulated necroptosis”. Take `Clc1cccc(NCc2nc3ccccc3o2)c1` [5c]: the IC50 on P2Y14R was found to be 12.4 nM.

`O=S(=O)(NCCNC/C=C/c1ccc(Br)cc1)c1cccc2cnccc12` [H-89]: the “siP2Y14R-derived protection against TSZ-induced necroptosis” value in the experiment on HCT-116 cells is listed as “disrupted the protective effect”. Besides, the “Ripk1 mRNA level” value in the experiment with Ripk1 mRNA [1] and with Ripk1 mRNA [2] was “greatly up-regulated the level of Ripk1” in each case. With `Cc1ccc(NCc2nc3ccccc3o2)cc1` [5h], the 50% inhibitory concentration (IC50) on P2Y14R amounted to 2.74 nM. Turning to `c1ccc(NCc2nc3ccccc3o2)cc1` [5a], the half-maximal inhibitory concentration (IC50) at P2Y14R was determined as 5.36 nM.
